Some of the results follow.
What follows are compounds tested on HSkMC (human skeletal muscle cells) (assay: cytotoxicity call (relative viability < 0.9)). Conditions: 10 µM.
For `C[C@@H]1CN([C@@H](C)CO)C(=O)c2cccc(NS(=O)(=O)c3cn(C)cn3)c2O[C@@H]1CN(C)S(=O)(=O)c1cn(C)cn1`, the cytotoxicity call was “inactive”.
With `C[C@@H]1CN([C@@H](C)CO)C(=O)c2cc(NS(=O)(=O)c3ccc(F)cc3)ccc2O[C@@H](C)CCCCO[C@H]1CN(C)C(=O)CCC(F)(F)F` the cytotoxicity call was “inactive”.
`Cc1ccc(S[C@]2(C(=O)NC(C)C)CC(=O)N(C3CCCCC3)[C@@H]2c2ccc(CO)cc2I)cc1` was tested, and the cytotoxicity call was “inactive”.
`Cc1cnc2c(c1N1CCOCC1)c(=O)n(C)c(=O)n2C` was tested, and the cytotoxicity call was “inactive”.
In the case of `C[C@H]1CN([C@@H](C)CO)C(=O)c2cc(NC(=O)CCC(F)(F)F)ccc2O[C@@H]1CN(C)Cc1ccc(C(F)(F)F)cc1`, the cytotoxicity call is reported as “inactive”.
`C[C@H]1CN([C@@H](C)CO)S(=O)(=O)c2ccc(C#CC3CCCC3)cc2O[C@@H]1CN(C)Cc1cncnc1` was tested, and the cytotoxicity call was “inactive”.
For `COc1ccc([Si](C)(C)[C@H]2[C@H](CCO)O[C@@]3(C(=O)N(Cc4ccccc4)c4ccc(N(C=O)c5ccccc5)cc43)[C@@H]2C)cc1`, the cytotoxicity call was “inactive”.
With `C[C@H](CO)N1C[C@H](C)[C@H](CN(C)C(=O)Nc2cccc3ccccc23)Oc2ccc(NC(=O)Cc3ccccc3)cc2C1=O` the cytotoxicity call was “inactive”.
In the case of `C[C@H]1CN([C@@H](C)CO)C(=O)Cc2cc(NS(=O)(=O)c3ccccc3)ccc2O[C@H]1CN(C)S(=O)(=O)c1ccccc1`, the cytotoxicity call is reported as “inactive”.
With `CNC(=O)CO[C@H]1COC2(CCN(C(=O)c3ccn(C)n3)CC2)C1` the cytotoxicity call was “inactive”.
`C[C@@H]1CN([C@H](C)CO)C(=O)Cc2cc(NC(=O)NC3CCCCC3)ccc2O[C@@H]1CN(C)Cc1ccc(Cl)c(Cl)c1` was tested, and the cytotoxicity call was “active”.
For `COc1ccc(S(=O)(=O)N2CCCN(S(=O)(=O)c3ccc(OC)c(OC)c3)CC2)cc1OC`, the cytotoxicity call was “inactive”.
In the case of `C[C@H]1CN([C@@H](C)CO)C(=O)Cc2cc(NS(=O)(=O)c3cn(C)cn3)ccc2O[C@@H]1CN(C)Cc1ccncc1`, the cytotoxicity call is reported as “inactive”.
`Cc1noc(C)c1NC(=O)N(C)C[C@@H]1OCCCC[C@H](C)Oc2ccc(NC(=O)C3CCCCC3)cc2C(=O)N([C@H](C)CO)C[C@H]1C` was tested, and the cytotoxicity call was “inactive”.
For `C[C@@H]1CCCCO[C@H](CN(C)Cc2ccc(C(=O)O)cc2)[C@@H](C)CN([C@@H](C)CO)C(=O)c2cc(NC(=O)C3CCCCC3)ccc2O1`, the cytotoxicity call was “inactive”.
`C[C@H]1CN([C@@H](C)CO)C(=O)CCCn2cc(nn2)CO[C@@H]1CN(C)S(=O)(=O)c1ccc2c(c1)OCCCO2` was tested, and the cytotoxicity call was “inactive”.
`C[C@@H]1CCCCO[C@H](CN(C)Cc2ccc(C(=O)Nc3ccccc3N)cc2)[C@@H](C)CN([C@H](C)CO)C(=O)c2cc(N(C)C)ccc2O1` was tested, and the cytotoxicity call was “inactive”.
`C[C@H]1CN([C@@H](C)CO)S(=O)(=O)c2ccc(C3=CCCC3)cc2O[C@H]1CN(C)C(=O)C1CCOCC1` was tested, and the cytotoxicity call was “inactive”.
With `Cn1c(=O)c2c(ncn2CCO)n(C)c1=O` the cytotoxicity call was “inactive”.
`O=C(C[C@@H]1CC[C@@H]2[C@H](COC[C@H](O)CN2S(=O)(=O)c2ccccc2)O1)NCc1ccc2c(c1)OCO2` was tested, and the cytotoxicity call was “inactive”.
With `C[C@H](CO)N1C[C@H](C)[C@@H](CN(C)Cc2ccc(Oc3ccccc3)cc2)Oc2ccc(NS(=O)(=O)c3ccc(Cl)cc3)cc2CC1=O` the cytotoxicity call was “inactive”.
With `COCC#Cc1cnc2c(c1)C(=O)N([C@@H](C)CO)C[C@@H](C)[C@@H](CN(C)C(=O)CN1CCOCC1)O2` the cytotoxicity call was “inactive”.
In the case of `O=C(CCCCC(=O)N/N=C/c1cc(I)cc(I)c1O)NO`, the cytotoxicity call is reported as “inactive”.
In the case of `Cc1cc(NC2CCCCC2)ncn1`, the cytotoxicity call is reported as “inactive”.
`CC(C)(N)c1ccccc1Br` was tested, and the cytotoxicity call was “inactive”.
`COc1ccc(S(=O)(=O)Nc2ccc3c(c2)CC(=O)N([C@H](C)CO)C[C@@H](C)[C@@H](CN(C)S(=O)(=O)c2c(C)noc2C)O3)cc1` was tested, and the cytotoxicity call was “inactive”.
With `C[C@@H]1CN([C@H](C)CO)C(=O)Cc2cc(NS(C)(=O)=O)ccc2O[C@H]1CN(C)S(=O)(=O)c1ccccc1` the cytotoxicity call was “inactive”.
For `O=C(CCCCCNC(=O)OCCCCO[C@@H]1C[C@H](c2ccc3c(c2)OCO3)C=C(C(=O)N2CCOCC2)O1)NO`, the cytotoxicity call was “inactive”.
In the case of `Cc1noc(C)c1NC(=O)Nc1ccc2c(c1)CC(=O)N([C@@H](C)CO)C[C@@H](C)[C@H](CN(C)S(=O)(=O)c1ccccc1)O2`, the cytotoxicity call is reported as “inactive”.
In the case of `C[C@H](CO)N1C[C@H](C)[C@@H](CN(C)C(=O)Nc2ccccc2C(F)(F)F)OCc2cn(nn2)CCCC1=O`, the cytotoxicity call is reported as “inactive”.
In the case of `NC1=N[C@H]2CS[C@@H](CCCCC(=O)O)[C@H]2N1`, the cytotoxicity call is reported as “inactive”.
With `C[C@@H]1CN([C@@H](C)CO)C(=O)c2cc(NS(=O)(=O)c3cccs3)ccc2O[C@@H](C)CCCCO[C@@H]1CN(C)C(=O)Nc1ccc2c(c1)OCO2` the cytotoxicity call was “inactive”.
With `NC[C@H]1O[C@H](O[C@H]2[C@@H](O[C@@H]3O[C@H](CO)[C@@H](O)[C@H]3O)[C@@H](O)[C@H](N)C[C@@H]2N)[C@H](N)[C@@H](O)[C@@H]1O` the cytotoxicity call was “inactive”.
`Cn1cnc(S(=O)(=O)N[C@H]2C=C[C@H](CC(=O)NCC3CC3)O[C@@H]2CO)c1` was tested, and the cytotoxicity call was “inactive”.
`C[C@H](CO)N1C[C@H](C)[C@H](CN(C)C(=O)CN(C)C)Oc2ncc(C#CC3(O)CCCC3)cc2C1=O` was tested, and the cytotoxicity call was “inactive”.
`C[C@@H]1CN([C@H](C)CO)C(=O)c2cc(NC(=O)Nc3ccccc3)ccc2O[C@H]1CN(C)Cc1ccc(C(F)(F)F)cc1` was tested, and the cytotoxicity call was “inactive”.
For `C[C@@H]1CN([C@@H](C)CO)C(=O)c2cc(NC(=O)CCC(F)(F)F)ccc2O[C@@H](C)CCCCO[C@@H]1CN(C)Cc1ccncc1`, the cytotoxicity call was “inactive”.
`CCN(CC)CCOCCOC(=O)C1(c2ccccc2)CCCC1.O=C(O)CC(O)(CC(=O)O)C(=O)O` was tested, and the cytotoxicity call was “inactive”.
`Cc1ccc(S(=O)(=O)N(C)C[C@H]2Oc3ccc(NS(=O)(=O)c4cccs4)cc3C(=O)N([C@H](C)CO)C[C@H]2C)cc1` was tested, and the cytotoxicity call was “inactive”.
For `Cc1noc(C)c1S(=O)(=O)Nc1ccc2c(c1)C(=O)N([C@H](C)CO)C[C@H](C)[C@H](CN(C)C(=O)Nc1ccccc1)OCCCC[C@H](C)O2`, the cytotoxicity call was “inactive”.
